# Assay results from article PMC4154625 (Cytoskeleton (Hoboken, N.J.), 2014).
# B1: four-repeat long (4RL) Tau C291I (natural protein)
# chain: not shown
# modifications: Alexa Fluor 488-C5 maleimide on the single remaining cysteine (C322); labeling efficiency 79-85%
# Biological target: the molecule itself
# Assay: single-molecule TIRF brightness analysis
protein,measurement,value
B1,stoichiometry N,2
